Test results: PMC12724269
No constants are given. Whether binding was seen depends on the method and setting. In cells and extracts the contact can be indirect. Some entries that bind do so weakly or less than the wild type. Where a sequence is shown, tags or fusion partners need not be part of it.

T1: Δ2-63-ANKLE2-3XFLAG (human) (UniProt Q86XL3)
T1 sequence: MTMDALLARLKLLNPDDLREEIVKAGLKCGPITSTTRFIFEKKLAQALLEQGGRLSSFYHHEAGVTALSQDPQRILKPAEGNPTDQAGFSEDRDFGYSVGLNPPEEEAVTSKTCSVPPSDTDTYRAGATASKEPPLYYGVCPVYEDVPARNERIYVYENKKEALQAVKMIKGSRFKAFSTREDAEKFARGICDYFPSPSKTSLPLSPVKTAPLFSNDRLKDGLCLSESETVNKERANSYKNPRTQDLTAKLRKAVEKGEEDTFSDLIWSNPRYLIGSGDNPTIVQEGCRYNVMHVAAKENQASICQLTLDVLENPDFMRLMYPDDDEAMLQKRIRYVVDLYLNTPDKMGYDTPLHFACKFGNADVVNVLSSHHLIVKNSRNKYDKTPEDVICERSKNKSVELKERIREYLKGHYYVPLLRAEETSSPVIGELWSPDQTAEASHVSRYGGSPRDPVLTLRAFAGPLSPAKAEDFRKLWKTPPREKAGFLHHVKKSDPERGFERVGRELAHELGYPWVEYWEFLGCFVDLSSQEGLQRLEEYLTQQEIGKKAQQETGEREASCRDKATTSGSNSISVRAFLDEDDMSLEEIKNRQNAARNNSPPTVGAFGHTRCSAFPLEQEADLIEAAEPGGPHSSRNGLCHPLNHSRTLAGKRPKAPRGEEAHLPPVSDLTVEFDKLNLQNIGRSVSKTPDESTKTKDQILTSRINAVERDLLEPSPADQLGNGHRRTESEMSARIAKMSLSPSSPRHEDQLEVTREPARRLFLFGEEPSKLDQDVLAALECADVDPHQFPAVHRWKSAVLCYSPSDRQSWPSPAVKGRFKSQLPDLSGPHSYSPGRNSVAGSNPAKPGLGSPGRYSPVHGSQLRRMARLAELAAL

T2: Δ2-53-ANKLE2-3XFLAG (human) (UniProt Q86XL3)
T2 sequence: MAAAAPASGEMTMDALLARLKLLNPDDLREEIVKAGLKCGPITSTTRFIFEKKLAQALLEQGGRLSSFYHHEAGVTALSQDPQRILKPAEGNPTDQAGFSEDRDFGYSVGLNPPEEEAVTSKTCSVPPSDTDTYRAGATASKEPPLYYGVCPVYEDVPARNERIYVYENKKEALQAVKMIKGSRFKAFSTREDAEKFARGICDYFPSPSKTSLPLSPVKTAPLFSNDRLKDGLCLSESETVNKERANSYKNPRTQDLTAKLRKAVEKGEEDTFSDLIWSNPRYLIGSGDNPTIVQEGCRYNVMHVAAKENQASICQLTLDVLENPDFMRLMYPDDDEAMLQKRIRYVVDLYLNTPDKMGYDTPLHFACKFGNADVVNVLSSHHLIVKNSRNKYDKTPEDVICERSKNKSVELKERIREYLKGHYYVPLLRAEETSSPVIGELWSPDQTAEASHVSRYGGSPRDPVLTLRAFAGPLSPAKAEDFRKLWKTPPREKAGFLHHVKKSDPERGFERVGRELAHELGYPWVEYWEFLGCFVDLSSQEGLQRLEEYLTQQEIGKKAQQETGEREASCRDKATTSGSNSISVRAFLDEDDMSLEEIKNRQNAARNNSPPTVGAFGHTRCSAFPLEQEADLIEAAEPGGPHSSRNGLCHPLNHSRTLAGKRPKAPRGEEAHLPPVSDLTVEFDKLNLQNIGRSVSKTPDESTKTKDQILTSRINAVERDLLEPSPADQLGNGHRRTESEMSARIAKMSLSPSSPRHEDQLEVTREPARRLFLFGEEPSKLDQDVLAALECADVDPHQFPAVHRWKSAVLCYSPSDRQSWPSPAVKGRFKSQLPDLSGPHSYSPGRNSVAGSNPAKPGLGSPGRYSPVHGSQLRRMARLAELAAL

T3: Δ2-117-ANKLE2-3XFLAG (human) (UniProt Q86XL3)
T3 sequence: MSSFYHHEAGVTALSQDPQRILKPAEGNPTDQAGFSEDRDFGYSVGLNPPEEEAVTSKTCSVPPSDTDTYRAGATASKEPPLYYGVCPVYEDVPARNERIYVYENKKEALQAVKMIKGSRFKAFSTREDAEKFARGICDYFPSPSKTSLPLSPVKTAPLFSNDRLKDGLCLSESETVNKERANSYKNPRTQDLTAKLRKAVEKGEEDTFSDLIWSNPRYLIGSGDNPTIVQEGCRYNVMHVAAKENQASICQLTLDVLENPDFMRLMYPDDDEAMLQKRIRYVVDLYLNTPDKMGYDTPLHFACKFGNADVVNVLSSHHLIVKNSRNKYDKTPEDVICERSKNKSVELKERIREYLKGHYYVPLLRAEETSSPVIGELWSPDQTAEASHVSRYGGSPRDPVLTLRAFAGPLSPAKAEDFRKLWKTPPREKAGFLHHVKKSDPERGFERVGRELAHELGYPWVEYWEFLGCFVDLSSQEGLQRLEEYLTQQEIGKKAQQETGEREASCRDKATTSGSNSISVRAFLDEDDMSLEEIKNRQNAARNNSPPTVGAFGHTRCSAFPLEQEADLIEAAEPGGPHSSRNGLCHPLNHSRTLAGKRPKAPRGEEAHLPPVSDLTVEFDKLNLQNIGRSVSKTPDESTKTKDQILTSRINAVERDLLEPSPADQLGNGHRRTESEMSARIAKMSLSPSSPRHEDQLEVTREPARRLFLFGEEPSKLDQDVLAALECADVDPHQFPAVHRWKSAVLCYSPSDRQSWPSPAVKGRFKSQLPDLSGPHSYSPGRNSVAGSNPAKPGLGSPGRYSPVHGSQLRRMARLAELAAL

T4: Δ2-252-ANKLE2-3XFLAG (human) (UniProt Q86XL3)
T4 sequence: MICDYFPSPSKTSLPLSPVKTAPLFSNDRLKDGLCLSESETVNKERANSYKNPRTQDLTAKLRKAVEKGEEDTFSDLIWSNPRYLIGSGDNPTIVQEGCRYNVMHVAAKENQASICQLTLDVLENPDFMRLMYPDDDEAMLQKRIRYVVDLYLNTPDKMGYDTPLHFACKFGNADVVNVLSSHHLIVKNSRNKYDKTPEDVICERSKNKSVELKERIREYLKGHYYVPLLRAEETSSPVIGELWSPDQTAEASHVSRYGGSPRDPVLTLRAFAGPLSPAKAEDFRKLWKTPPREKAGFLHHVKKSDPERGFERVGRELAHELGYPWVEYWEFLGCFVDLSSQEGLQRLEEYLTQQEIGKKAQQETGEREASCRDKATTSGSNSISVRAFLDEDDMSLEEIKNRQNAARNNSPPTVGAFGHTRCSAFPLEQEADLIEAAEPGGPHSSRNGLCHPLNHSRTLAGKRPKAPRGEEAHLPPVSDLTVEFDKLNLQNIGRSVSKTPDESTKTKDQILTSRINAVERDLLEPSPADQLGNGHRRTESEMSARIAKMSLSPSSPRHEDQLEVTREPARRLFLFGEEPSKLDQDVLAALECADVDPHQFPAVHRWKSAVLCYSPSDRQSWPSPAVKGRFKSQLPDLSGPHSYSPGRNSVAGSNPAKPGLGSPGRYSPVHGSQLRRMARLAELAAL

T5: full-length ANKLE2-3XFLAG (Ankyrin repeat and LEM domain-containing protein 2) (human), Q86XL3
T5 chain: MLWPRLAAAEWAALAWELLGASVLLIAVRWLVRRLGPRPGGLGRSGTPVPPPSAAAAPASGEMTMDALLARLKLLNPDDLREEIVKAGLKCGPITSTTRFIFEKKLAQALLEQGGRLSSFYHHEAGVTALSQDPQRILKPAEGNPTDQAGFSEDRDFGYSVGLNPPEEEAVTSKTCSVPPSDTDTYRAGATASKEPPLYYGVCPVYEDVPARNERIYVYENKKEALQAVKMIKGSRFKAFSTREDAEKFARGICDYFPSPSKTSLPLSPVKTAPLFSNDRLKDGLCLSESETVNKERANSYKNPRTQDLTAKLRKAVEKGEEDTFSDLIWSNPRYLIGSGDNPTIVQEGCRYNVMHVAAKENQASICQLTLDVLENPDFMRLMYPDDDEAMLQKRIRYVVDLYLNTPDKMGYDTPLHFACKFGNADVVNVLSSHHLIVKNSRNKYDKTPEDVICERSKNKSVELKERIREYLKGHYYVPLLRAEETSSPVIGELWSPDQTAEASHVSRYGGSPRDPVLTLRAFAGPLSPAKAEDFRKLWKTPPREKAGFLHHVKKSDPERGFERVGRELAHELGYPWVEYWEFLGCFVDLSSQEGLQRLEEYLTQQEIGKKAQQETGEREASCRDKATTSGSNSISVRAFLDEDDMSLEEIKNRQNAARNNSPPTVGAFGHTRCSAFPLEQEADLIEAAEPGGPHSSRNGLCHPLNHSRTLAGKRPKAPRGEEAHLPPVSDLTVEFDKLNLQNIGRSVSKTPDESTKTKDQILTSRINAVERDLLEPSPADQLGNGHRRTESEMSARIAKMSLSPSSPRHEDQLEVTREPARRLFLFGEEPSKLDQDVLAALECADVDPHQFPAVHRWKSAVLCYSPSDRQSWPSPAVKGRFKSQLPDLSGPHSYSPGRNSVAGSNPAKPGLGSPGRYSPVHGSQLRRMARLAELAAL

B1: barrier-to-autointegration factor (BAF) (protein, UniProt O75531 1-89)
chain: MTTSQKHRDFVAEPMGEKPVGSLAGIGEVLGKKLEERGFDKAYVVLGQFLVLKKDEDLFREWLKDTCGANAKQSRDCFGCLREWCDAFL
B2: barrier-to-autointegration factor (BAF), O75531 1-89 (protein)
chain: B1 chain

Tests used:
Assay in all cases: co-IP; ANKLE2-3XFLAG complexes immunoprecipitated from lysates of doxycycline-treated transduced HeLa cells on Dynabead Protein G beads conjugated to mouse anti-FLAG, overnight at 4°C; lysis buffer 50 mM Tris-HCl pH 7.4, 150 mM NaCl, 1% Triton X-100, protease and phosphatase inhibitors, nuclease; blots for PP2A and total BAF
[1] = target: T1, Δ2-63-ANKLE2-3XFLAG (human)
[2] = target: T2, Δ2-53-ANKLE2-3XFLAG (human)
[3] = target: T3, Δ2-117-ANKLE2-3XFLAG (human)
[4] = target: T4, Δ2-252-ANKLE2-3XFLAG (human)
[5] = target: T5, full-length ANKLE2-3XFLAG (Ankyrin …); conditions: remark: other sources report otherwise

Binder | binding [1] | binding [2] | binding [3] | binding [4] | binding [5]
B1 | binds | binds | no binding | no binding | –
B2 | – | – | – | – | no binding
